Source: PubChem BioAssay AID2675 (National Center for Advancing Translational Sciences (NCATS), 2010)
Hit rate of the full screen: of about 280,000 compounds, about 100 (0.036%) were called active. Inconclusive means that the source gave no clear call. Such entries were picked first, then a sample of the others. The call rests on the fitted dose curve; in most records, active means well fitted inhibition curve with a large enough effect in the signal ratio, with a control signal flat (not every such curve was filed as active); inconclusive means small, poorly fitted or top-dose-only effect, or effect the other way, or a change in a side signal; inactive means no such curve, though single readings can be large or run the other way; the % refers to the signal ratio. Potencies beside an inconclusive call are fits to weak or partial responses and may not hold up. A note “side channel” means that the fit belongs to a control or component signal, not to the main read-out.

Target: Muscleblind-like protein 1 (Homo sapiens) (UniProt Q9NR56)
Experiment: qHTS Assay for Inhibitors of MBNL1-poly(CUG) RNA binding
Settings: TR-FRET MBNL1-His/biotin-(CUG)12 binding, 665/545 ratio; activity change, negative = inhibition: at 57.5 µM (top of the series)
Summary of the method: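 TR-FRET between His-tagged MBNL1 and biotin-(CUG)12 RNA, detected with Tb anti-His antibody (0.055 ng/ul) and streptavidin-XL665 (5 nM), 60 min at room temperature. Compounds titrated 92 nM to 58 uM; 665/545 nm ratio normalized to buffer and complex controls.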
On the % scale 0 is the no-effect control and ±100 the full control effect; potency means the concentration at half of the fitted maximal effect; tags describe the fitted curve by direction and shape or compound fluorescence and quenching.

Sequence of UniProt Q9NR56 (Q9NR56 whole entry, looked up): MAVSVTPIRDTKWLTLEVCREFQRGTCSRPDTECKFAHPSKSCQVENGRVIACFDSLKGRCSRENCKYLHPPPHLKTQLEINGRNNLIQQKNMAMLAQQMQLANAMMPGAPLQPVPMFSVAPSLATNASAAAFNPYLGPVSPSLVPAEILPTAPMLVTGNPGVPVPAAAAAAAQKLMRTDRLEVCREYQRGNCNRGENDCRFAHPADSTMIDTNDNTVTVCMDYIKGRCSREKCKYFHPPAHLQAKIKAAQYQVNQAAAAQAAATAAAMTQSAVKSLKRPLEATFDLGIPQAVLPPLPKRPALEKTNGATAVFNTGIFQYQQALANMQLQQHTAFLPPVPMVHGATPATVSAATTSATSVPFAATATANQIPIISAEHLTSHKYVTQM

| Structure (SMILES) | Potency | activity change, negative = inhibition |
| --- | --- | --- |
| CC1(C)CNc2cc([N+](=O)[O-])ccc2S1 | inconclusive: 12.6 µM [quencher, side channel, partial curve] |  |
| O=C(O)c1cc(Nc2cc(Cl)c3nonc3c2[N+](=O)[O-])ccc1O | inconclusive: 12.6 µM [quencher, side channel, partial curve] |  |
| CN(C)CCNS(=O)(=O)c1ccc2c3c(cccc13)C(=O)N2 | inconclusive: 7.94 µM [quencher, side channel, partial curve] |  |
| COc1ccc(N2CCN(C(=O)CNC(=O)c3nn(-c4ccc(OC)cc4)c(=O)c4ccccc34)CC2)cc1 | inconclusive: 20 µM [quencher, side channel, single point] |  |
| COCCNC(=O)C(=O)N/N=C/c1cccs1 | inconclusive: 25.1 µM [quencher, side channel, single point] |  |
| Cc1ccc(S(=O)(=O)N2CCC(C(N)=O)CC2)cc1[N+](=O)[O-] | inconclusive: 11.2 µM [quencher, side channel, partial curve] |  |
| NC(=O)CC(NC(=O)Cc1ccc(Br)cc1)c1ccc(NC2CCN(Cc3ccccc3)CC2)c([N+](=O)[O-])c1 (stereo unspecified) | inconclusive: 39.8 µM [quencher, side channel, single point] |  |
| O=C1C2C3C=CC(C4CC34)C2C(=O)N1/N=C/c1ccc([N+](=O)[O-])o1 (stereo unspecified) | inconclusive: 14.1 µM [quencher, side channel, partial curve] |  |
| CN(C)c1oc(-c2ccccc2Cl)nc1C#N |  | inactive: -0.372% |
| Cn1cc(Cl)c(C(=O)N/N=C/c2ccc(OS(=O)(=O)c3ccccc3)cc2)n1 | inconclusive: 11.2 µM [quencher, side channel, partial curve] |  |
| CC(=O)Nc1ccc(S(=O)(=O)N2CCN(c3ccc([N+](=O)[O-])c(NCCN4CCOCC4)c3)CC2)cc1 | inconclusive: 7.94 µM [activator, single point] |  |
| C=C(C)CSc1cc(C)c(C#N)c2nc3ccccc3n12 | inconclusive: 0.141 µM [quencher, side channel, full curve, poor fit] |  |
| Cc1cc2oc(=O)cc(C)c2c(=O)o1 | inconclusive: 15.8 µM [quencher, side channel, partial curve] |  |
| COC(=O)c1c(N)n(-c2ccc(N3CCOCC3)cc2)c2nc3ccccc3nc12 | inconclusive: 6.31 µM [quencher, side channel, partial curve] |  |
| O=C1CSC(=S)N1/N=C/c1ccc(O)c([N+](=O)[O-])c1 | inconclusive: 15.8 µM [quencher, side channel, partial curve] |  |
| CCN1C(=O)/C(=C/c2ccc(OCc3ccc(C(=O)O)cc3)c(Cl)c2)NC1=S | inconclusive: 20 µM [quencher, side channel, single point] |  |
| Cc1ccsc1/C=N/NC(=O)c1nnn(-c2nonc2N)c1C |  | inactive: 11.9% |
| Cc1cccc(C(C)C)c1NC(=O)c1ccc(CN(c2ccccc2)S(=O)(=O)c2ccccc2)cc1 | inconclusive: 0.112 µM [fluorescent, side channel, full curve, poor fit] |  |

| Structure (SMILES) | Potency | activity change, negative = inhibition |
| --- | --- | --- |
| COCC(C)NC(=O)CSc1ncnc2sc(-c3ccccc3)cc12 (stereo unspecified) | inconclusive: 28.2 µM [quencher, side channel, partial curve] |  |
| CN(c1ccccc1C(=O)Nc1cccc([N+](=O)[O-])c1)S(C)(=O)=O | inconclusive: 39.8 µM [quencher, single point] |  |
| Cn1cc2c(=O)n(/N=C/c3ccccc3)cnc2n1 | inconclusive: 0.126 µM [quencher, side channel, full curve, poor fit] |  |
| COc1ccc(/C=C2/CCOC2=O)cc1 | inconclusive: 39.8 µM [quencher, side channel, single point] |  |
| CCCCN(CC)C(=O)/C=C/c1cccc([N+](=O)[O-])c1 | inconclusive: 5.01 µM [quencher, side channel, partial curve] |  |
| COc1cc(OC)cc(C(=O)NC2CCCN(Cc3ccc(Cl)cc3)C2)c1 (stereo unspecified) |  | inactive: -1.52% |
| COc1ccc2cc(C(=O)N/N=C/c3sc4ccccc4c3O)ccc2c1 | inconclusive: 25.1 µM [quencher, side channel, single point] |  |
| COc1ccc(C(=O)OCC(=O)NCCCc2ccccc2)cc1[N+](=O)[O-] | inconclusive: 25.1 µM [quencher, side channel, single point] |  |
| O=C(N/N=C/c1ccc(Cl)s1)c1ccccc1[N+](=O)[O-] | inconclusive: 20 µM [quencher, partial curve, poor fit] |  |
| Cc1cccc(C)c1OCC(O)CN1CCC(CN2C(=O)c3cccc4cccc(c34)C2=O)CC1 (stereo unspecified) | inconclusive: 3.16 µM [quencher, side channel, full curve, poor fit] |  |
| COc1cc(/C=C2/C(=N)N3C(=NC2=O)SN=C3S(=O)(=O)C(C)C)ccc1OC(=O)c1ccco1 |  | inactive: 6.39% |
| CC12CCC(C(=O)N/N=C/c3ccc(O)cc3O)(OC1=O)C2(C)C (stereo unspecified) |  | inactive: 3.37% |
| COc1ccc(NC(=S)Nc2ccc(OCc3ccccc3)cc2)c(OC)c1 | inconclusive: 0.1 µM [fluorescent, side channel, full curve, poor fit] |  |
| Nc1ncc(Br)cc1N=Cc1ccccc1 | inconclusive: 12.6 µM [quencher, partial curve] |  |
| CCN(CC)c1ccc(/C=N/Nc2nc(C)cc(C)n2)cc1 | inconclusive: 12.6 µM [quencher, side channel, partial curve] |  |
| CCCN1CC=C2C(C#N)=C(N)C(C#N)(C#N)C(c3cc(OC)ccc3OC)C2C1 (stereo unspecified) | inconclusive: 7.94 µM [quencher, side channel, partial curve] |  |
| O=C(c1cccc([N+](=O)[O-])c1)N1CCN(Cc2ccccc2)CC1 | inconclusive: 12.6 µM [quencher, side channel, partial curve] |  |
| CCOc1ccccc1NC(=O)CCS(=O)(=O)c1cccc2nsnc12 | inconclusive: 12.6 µM [quencher, side channel, partial curve] |  |
